Consider 22 molecules from article PMC12136788.

Some of the results follow.

To fix the notation:
B1: chr1:89933607:89933717:+|CDS|ENSG00000171492|unk|total|mutant (ssRNA)
RNA: GGGAGUUCUACAGUCCGACGAUCCAACUUUUGGUUCAAAUAUCCCAAAACAUGCUCAAAAGCCGAACAUUUUGUUUCAAUAUCCGGAAAGUGCUUUGAAUCCCCUUGGACGACAAAAGCGUUGUCUGAGACAGCAUGCGAAGACAACAGAGGAUUGAGCAUCA
B2: chr15:60347444:60347559:-|3pUTR|ENSG00000182718|msi1_unk|FALSE|overlapping (ssRNA)
RNA: GGGAGUUCUACAGUCCGACGAUCUAACAGUCCCCGUGGCCAUCCCUGUGAGGGUGACGUUAGCAUUACCCCCAACCUCAUUUUAGUUGCCUAAGCAUUGCCUGGCCUUCCUGUCUAGUCUCUCCUGUAAGCCAAAGAAAUGAACAACAGAGGAUUGAGCAUCA
B3: ENSG00000070961:be:win_2301|CDS|ENSG00000070961|bound_else_gene|NA|bound_elsewhere_windowed (ssRNA)
RNA: GGGAGUUCUACAGUCCGACGAUCAUCAUCUCCUACUGAUAAGCAUACACUGGUUAAAGGUAUAAUUGACAGCACUGUCUCAGACCAACGCCAGGUUGUAGCUGUAACUGGUGAUGGUACAAAUGAUGGCCCAGCACUAAAGAACAACAGAGGAUUGAGCAUCA
B4: chr14:54957033:54957204:-|CDS|ENSG00000198554|control|control|control (ssRNA)
RNA: GGGAGUUCUACAGUCCGACGAUCGCACGUUCAACUAAUAUUUUAGACAAUAUGGGCAAAUCAUCCAAGAAAUCCACUGCACUUAGUCGAACUACAAAUAAUGAAAAGUCUCCCAUUAUAAAGCCUCUGAUUCCAAAGCCGAAGCAACAGAGGAUUGAGCAUCA
B5: ENSG00000130508:stop:overlap|stop_codon|ENSG00000130508|stop_codon|NA|stop_codon (ssRNA)
RNA: GGGAGUUCUACAGUCCGACGAUCUGAACAUCCCAGGGGCCUGCUGUCCAGUCUGCUUACAGAAGAGGGCGGAGGAAAAGCCCUAGGCUCCUGGGAGGCUCCUCAGAGUUUGUCUGCUGUGCCAUCGUGAGAUCGGGUGGCCGACAACAGAGGAUUGAGCAUCA
B6: chr9:123379744:123379845:-|3pUTR|ENSG00000119522|msi1|total|mutant (ssRNA)
RNA: GGGAGUUCUACAGUCCGACGAUCGUGUUUCAGCACCGAUUCCAGUUUCGCACCCUGGGCAGACCCCCAGGCCCCAUCCGGGACCGGGCAGAGGAGGUGCUGGCGGCCCCAGGGAAGGAGGGUGUGUACCCCAAGGCCCCCUGGCAACAGAGGAUUGAGCAUCA
B7: chr8:30843048:30843149:-|CDS|ENSG00000133863|unk|FALSE|unique (ssRNA)
RNA: GGGAGUUCUACAGUCCGACGAUCGGAUACUAUAAUUGCUUCCAGAAAGUCAGAUCAUCCAAUAAACGAAGCAACAAUUAGCAUAGAAAAUUCUAAAUUUAACAGUAAUUUGCUUGCACACCCAGAUAUUUGUUGUAUUAGUGACAACAGAGGAUUGAGCAUCA
B8: chr10:113876644:113876745:+|CDS|ENSG00000196865|msi1|total|mutant (ssRNA)
RNA: GGGAGUUCUACAGUCCGACGAUCGGUUAAUGAUGCAGAUGCCAGCCUUUGGCAAGAACCCGAAGUUUCCUGCUGGCCAACUCCCGUCAUACUUGGACCUCGUGGAAACAUGUUGUUUUCUUUGAUUGGAGAGGGACACAAAGACAACAGAGGAUUGAGCAUCA
B9: chr18:55226207:55226308:-|3pUTR|ENSG00000196628|unk|total|mutant (ssRNA)
RNA: GGGAGUUCUACAGUCCGACGAUCAUUUUUACAGCCACACAAUUCUUGGCAUGUAUUAAGAAAAAAAAAAAUCCCUGUUCAAGCCGUUUUUCCACCUAUCAGCACUGAGUAAAUGCCAUAAAUCCAUUGAAAUGGUCUAAAUGUCAACAGAGGAUUGAGCAUCA
B10: chr12:102196458:102196651:-|three_prime_utr|ENSG00000183395|control|control|control (ssRNA)
RNA: GGGAGUUCUACAGUCCGACGAUCGGAGAAGCCCAUACUGCUACUAUAACUUGUGUAUGUUAAAUGUCUGUUUUAAAAGAAAGUAGUGUUAAGAUGUAUCAGUAACUGAAAUGAUAUGCUUUCUCUGUGCAUUAAACUUUGUGACAACAGAGGAUUGAGCAUCA
B11: chr18:3066806:3067261:-|three_prime_utr|ENSG00000101605|control|control|control (ssRNA)
RNA: GGGAGUUCUACAGUCCGACGAUCAUGACACUUUAAUUGUUUUUCUUUAUCUACAAAAUUAUGUGUUAAGAAAAUACCAUUCAUAGCAUGAAGAUUAGGAAACAGUUUUAAGGAGAAGACUUGAAUGAAGUUGGAGGGACAUUGCAACAGAGGAUUGAGCAUCA
B12: chr9:34241424:34241533:+|CDS|ENSG00000165006|unk|total|mutant (ssRNA)
RNA: GGGAGUUCUACAGUCCGACGAUCAACCCCAUCCUCGCCAGCUUGCAGCACAACAGCAUCCUCACACCAACUCGGGUCAGCAGCCGUGCCACGAAACAGAAAGUUCUCAGCCCACCUCACAUAAAGGCGGAUUUCAAUCUUGCUCAACAGAGGAUUGAGCAUCA
B13: chr2:70656783:70663424:-|three_prime_utr|ENSG00000075340|control|control|control (ssRNA)
RNA: GGGAGUUCUACAGUCCGACGAUCUCUCUCCUCCCCUUCCCUUCUCCCAUCUCUGUCCCUGCAAGCACAGGGCUAAGGAGGGAUAGAGUAGGACCCUGGACCACAUUCGGAAGGGGAACUUAGAGAUCACCCGACCAACCCUUCCAACAGAGGAUUGAGCAUCA
B14: chr13:32775312:32775413:+|3pUTR|ENSG00000083642|unk|total|mutant (ssRNA)
RNA: GGGAGUUCUACAGUCCGACGAUCGAAACUUGUAAAUAUCUUUUUUCUUUUUUUUAAUGUUUCUGAUUUCUGAAGUGCUUGUACCGCUUUUAUCUGCGGCUUUAAACUGACAGUACCCGACUGUUUAUUGGAUCUAUUGAUUUGCAACAGAGGAUUGAGCAUCA
B15: ENSG00000107863:be:win_6101|3pUTR|ENSG00000107863|bound_else_gene|NA|bound_elsewhere_windowed (ssRNA)
RNA: GGGAGUUCUACAGUCCGACGAUCGCAAGGUAUUUGUUGCAACUUACUACAUAGCAUAUACCCAAAAUCACUGAAGAAAAUCGCUGGCAUCAGUGUGCAGCAAAUUUGUUCUUUUGGUUUCAUCACUAACAAAAGUGCCUCAUCCAACAGAGGAUUGAGCAUCA
B16: chr12:101746137:101746238:-|3pUTR|ENSG00000111670|msi1|total|mutant (ssRNA)
RNA: GGGAGUUCUACAGUCCGACGAUCGGUCCGUAAAUUAUUGCAGGCCACCUGUGUCUUUGUCAUACAUUCUUCUUGCUGUUGUUCCGUUUGUUUUUUUUCAAACAACCCUCUAAAAAUGUAAAAACCAUGUUCCGCUUGCAGCUGCAACAGAGGAUUGAGCAUCA
B17: chr1:66363429:66363538:+|CDS|ENSG00000184588|unk|FALSE|bound_elsewhere (ssRNA)
RNA: GGGAGUUCUACAGUCCGACGAUCAGACCUCCUAAAGACAUUCAGAAUCUCAUCUGACACAUUUAUAACCUACAUGAUGACUUUAGAAGACCAUUACCAUUCUGACGUGGCAUAUCACAACAGCCUGCACGCUGCUGAUGUAGCCAACAGAGGAUUGAGCAUCA
B18: chr9:88475159:88475277:+|CDS|ENSG00000106723|unk|FALSE|bound_elsewhere (ssRNA)
RNA: GGGAGUUCUACAGUCCGACGAUCACAAGUGGAAUAUGCCAAAGAAGAUGGCUCGAAAAGGACUGGCAUGGUCAUUCAUCAAGUAGAAGCCAAGCCCUCCGUCUAUUUCAUCAAGUUUGAUGAUGAUUUCCAUAUUUAUGUCUACAACAGAGGAUUGAGCAUCA
B19: chr10:5393100:5393516:-|three_prime_utr|ENSG00000178462|control|control|control (ssRNA)
RNA: GGGAGUUCUACAGUCCGACGAUCUGGGUGCAAAUGAAUGUCAAGUUAAAAUGGCAUGUUUUCUUUUCAAGCCGUUAUAUGCCUAGUGGGUAGUUCCCCUGAUGAGCAGAAAAAUGAACUCAAAUCAGGCAAGACUCUAGGUUCCAACAGAGGAUUGAGCAUCA
B20: chr4:175632990:175633131:-|3pUTR|ENSG00000150625|msi1|FALSE|unique (ssRNA)
RNA: GGGAGUUCUACAGUCCGACGAUCGUUGACACUUUUGGCUUUUAUUUCUGGUAUUAGAGUUUGUAUUUUCACAGAGUGCUUUGUAGCAGGCAUUACAAUUAAUCUGUUUUGUACAUAAAUGUGCCAACAGCUUGAUGGUGGCGUCAACAGAGGAUUGAGCAUCA
B21: chr7:135928980:135929074:-|3pUTR|ENSG00000105887|msi1_unk|total|mutant (ssRNA)
RNA: GGGAGUUCUACAGUCCGACGAUCUAAAAACCGAAUCACCGCCAUAAGCCUGUCCGUAUCAUAUGAAGAGAGAACAGUUAUCUCCGUACCUAUGGAUUUUCUUUAUUUGCUGUUUGAAUGGAUUGACCUUGGUUAUGUGUUGAGCAACAGAGGAUUGAGCAUCA
B22: ENSG00000197746:stop:overlap|stop_codon|ENSG00000197746|stop_codon|NA|stop_codon (ssRNA)
RNA: GGGAGUUCUACAGUCCGACGAUCACACAGAGACAGCAGCCCAGUGCAAUGCUGUCGAGCAUUGCAAACGCCAUGUGUGGAACUAGGAGGAGGAAUAUUCCAUCUUGGCAGAAACCACAGCAUUGGUUUUUUUCUACUUGUGUGCAACAGAGGAUUGAGCAUCA

For the test, the target named is MSI1 full-length (mouse, UniProt Q61474 1-362). In words: nsRBNS (natural sequence RNA bind-n-seq); RBNS binding buffer (assumed for nsRBNS): 25 mM Tris pH 7.5, 150 mM KCl, 3 mM MgCl2, 0.01% Triton X-100, 500 ug/ml BSA, 20 U/ml SUPERase-In, 4 C; UNK is unkempt and MSI1 is Musashi-1; names of the RNAs are library labels; protein concentration not given here; high values mean tight binding.
UniProt Q61474, sequence (Q61474 whole entry): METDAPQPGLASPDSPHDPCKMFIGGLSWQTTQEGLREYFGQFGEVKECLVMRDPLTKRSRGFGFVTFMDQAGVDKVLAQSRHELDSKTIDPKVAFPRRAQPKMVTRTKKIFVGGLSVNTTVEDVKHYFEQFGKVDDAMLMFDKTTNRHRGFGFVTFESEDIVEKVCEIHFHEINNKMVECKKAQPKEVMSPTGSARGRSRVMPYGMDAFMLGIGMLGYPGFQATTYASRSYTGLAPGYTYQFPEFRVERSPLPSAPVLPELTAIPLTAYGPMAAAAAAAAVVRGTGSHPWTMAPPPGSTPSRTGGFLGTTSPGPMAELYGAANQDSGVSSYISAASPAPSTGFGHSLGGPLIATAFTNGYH
For B1, the binding signal came to 0.18 enrichment R. In turn, B2 came in with a binding signal of 2.29 enrichment R. As to B3, the binding signal was found to be 0.239 enrichment R. Then B4, with 1.64 enrichment R; and B5, with 0.208 enrichment R. The figure for B6 is 0.214 enrichment R. The molecule B7 yielded a binding signal of 29.7 enrichment R. For the molecule B8, the binding signal was found to be 0.304 enrichment R. Regarding B9, the binding signal was 0.37 enrichment R. Turning to B10, the binding signal came out at 1.91 enrichment R. B11 registered a binding signal of 0.485 enrichment R.

Take B12: the binding signal is 0.785 enrichment R. The molecule B13 came in with a binding signal of 0.384 enrichment R.

On to B14, for which the binding signal stood at 0.557 enrichment R. With B15, the binding signal stood at 0.458 enrichment R. As for B16, the binding signal was determined as 0.343 enrichment R. The figure for B17 is 0.812 enrichment R.

B18 displayed a binding signal of 0.499 enrichment R. The molecule B19 showed a binding signal of 0.403 enrichment R.

In the case of B20, the binding signal is 1.31 enrichment R.

The molecule B21 yielded a binding signal of 0.274 enrichment R.

Molecule B22 displayed a binding signal of 0.799 enrichment R.
